In all, about 310,000 compounds went through this assay and about 14,000 (4.5%) showed an effect of 50% or more. Effects have a minus sign here. The list shows a part of the results.
Target: human ether-à-go-go-related gene (hERG) potassium channel (human, UniProt Q12809)
Assay: primary screen, population patch clamp on CHO cells stably expressing hERG
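Also: peak tail current of the secondary pulse compared with the same well before compound.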

Chain of human ether-à-go-go-related gene (hERG) potassium channel (Q12809 whole entry, looked up): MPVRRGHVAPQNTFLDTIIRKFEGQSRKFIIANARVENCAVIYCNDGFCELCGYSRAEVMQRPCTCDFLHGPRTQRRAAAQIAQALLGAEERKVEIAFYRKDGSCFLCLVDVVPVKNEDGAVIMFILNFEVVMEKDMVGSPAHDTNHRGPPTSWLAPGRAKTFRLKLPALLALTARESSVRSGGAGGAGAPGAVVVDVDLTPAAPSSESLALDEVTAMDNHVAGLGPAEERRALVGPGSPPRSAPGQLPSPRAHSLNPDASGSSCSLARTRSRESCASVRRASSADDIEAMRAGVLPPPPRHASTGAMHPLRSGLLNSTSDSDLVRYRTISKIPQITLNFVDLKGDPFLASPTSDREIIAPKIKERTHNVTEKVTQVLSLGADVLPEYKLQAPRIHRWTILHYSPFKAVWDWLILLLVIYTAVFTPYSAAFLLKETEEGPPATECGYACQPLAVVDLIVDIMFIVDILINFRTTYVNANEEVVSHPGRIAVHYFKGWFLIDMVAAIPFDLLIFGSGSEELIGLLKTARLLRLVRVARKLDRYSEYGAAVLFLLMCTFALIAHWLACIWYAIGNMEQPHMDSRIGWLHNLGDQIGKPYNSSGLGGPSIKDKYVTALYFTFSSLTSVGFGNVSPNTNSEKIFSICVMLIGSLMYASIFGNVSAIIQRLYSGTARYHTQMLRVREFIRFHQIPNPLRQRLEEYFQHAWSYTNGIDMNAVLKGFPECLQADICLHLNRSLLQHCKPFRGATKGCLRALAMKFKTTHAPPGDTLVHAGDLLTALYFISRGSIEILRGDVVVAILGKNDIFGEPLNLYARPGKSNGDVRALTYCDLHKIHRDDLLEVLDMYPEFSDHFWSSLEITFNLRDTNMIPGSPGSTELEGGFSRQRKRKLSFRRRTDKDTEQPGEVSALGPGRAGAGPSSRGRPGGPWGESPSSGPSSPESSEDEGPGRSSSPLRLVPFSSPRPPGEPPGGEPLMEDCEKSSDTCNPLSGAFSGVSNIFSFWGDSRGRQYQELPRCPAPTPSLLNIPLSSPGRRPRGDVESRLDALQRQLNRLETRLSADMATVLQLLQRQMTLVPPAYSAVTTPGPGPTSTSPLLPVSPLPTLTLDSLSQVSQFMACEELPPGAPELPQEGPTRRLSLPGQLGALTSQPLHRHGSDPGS

SMILES	hERG current change (%, negative = inhibition) at 10uM [%]
C#CCn1c(=NC(=O)CN2C(=O)CCC2=O)sc2cccc(OC)c21	1.21
Clc1ccc(Cc2ccc(Cl)nn2)c(Cl)c1	-17.4
Cn1c(=O)[nH]c(=O)c2c1nc(Br)n2C/C=N/NC(N)=S	8.85
N#C/C(C(N)=O)=C1/CCc2ccccc2N1	-9.51
O=C(NCCc1csc(-c2ccc(C(F)(F)F)cc2)n1)c1cccs1	-1.12
NC(=O)N/N=C/c1cn(-c2ccccc2)nc1-c1cccnc1	4.92
Cc1ccc(OCCN2C(=O)c3ccccc3C2=O)cc1	-9.64
c1ccc2c(c1)ccc1ncccc12	4.5
Cc1cc(C)c(NC(=O)c2ccc3c(c2)NC(=O)C(C)S3)c(C)c1 (stereo not drawn)	-1.8
C/C(=N/N1CCN(c2ccccn2)CC1)c1ccc([N+](=O)[O-])cc1	-48.7
Cc1ccc(S(=O)(=O)C2(C(=O)N3CCCC(C)C3)CC2)cc1 (stereo not drawn)	-7.54
COC(=O)C1=C(c2ccc(F)cc2OCc2ccccc2)C[C@@H]2CC[C@H]1N2C(=O)NCCc1ccc(F)cc1	13.6
O=C(O)CSc1c2c(nc3cc(C(=O)NCCN4CCOCC4)ccc13)CCC2	-6.18
CCOP(=O)(OCC)c1cc(C)c(O)c(C(C)(C)C)c1	-3.41
Cl.N=c1n(CCN2CCCCC2)c2ccccc2n1CC(O)c1ccco1 (stereo not drawn)	-55.2
CC(OC(=O)CCC(=O)c1cccs1)C(=O)NC1CCCCC1C (stereo not drawn)	-6.24
CS(=O)(=O)N(CC(=O)Nc1ccccc1C(=O)NCc1ccco1)c1ccccc1F	-0.48
Cn1cc(C(=O)OCC(=O)N2CCCC2)c2ccccc21	2.96
COc1ccc(C(=O)Nc2ccc(Oc3nc(C)nc4sc(-c5ccccc5)cc34)cc2)cc1OC	10.7
CC(=O)c1ccc(OCC(=O)N(C)CC(=O)Nc2ccc(N3CCOCC3)cc2)cc1	9.61
COCc1cc(C)nc(SCC(=O)Nc2cccc(C)c2)c1C#N	14.2
CCN(CC(=O)Nc1cccc(S(=O)(=O)N2CCOCC2)c1)Cc1ccccc1	-4.27
COc1ccc(-c2cc(=[NH+]c3cccc(C(=O)O)c3)c3cc(C)ccc3o2)cc1.[O-][Cl+3]([O-])([O-])[O-]	-0.536
CCOC(=O)CC(NC(=O)c1cc2cccc(OC)c2oc1=O)c1cccc([N+](=O)[O-])c1 (stereo not drawn)	-23

From PMC4336329 (PLoS ONE, 2015)
